# Results as given in the supplement of paper PMC8728848.
# Some of the results follow.
# How the values were obtained:
# Assay in all cases: glycan array binding signal (z-score within array); higher = stronger binding
# Conditions in all cases: glycan notation: IUPAC condensed, linker removed
# [1] = target: GlcNAc(b1-3)Gal(b1-3)GalNAc
# Outline: (§1)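 Glycan array data came from 3228 arrays in the Consortium for Functional Glycomics database, and only arrays with an available protein sequence were kept. Glycan names were put into IUPAC-condensed notation, and columns mapping to the same glycan were averaged. The binding signal is a within-array Z-score, averaged across arrays of one protein sequence run at different concentrations or buffers and across linkers. A negative Z-score can be read as non-binding.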
# GlcNAc(b1-3)Gal(b1-4)Glc = target: GlcNAc(b1-3)Gal(b1-4)Glc
# Outline: as §1
# [2] = target: GlcNAc(b1-3)Gal(b1-4)GlcNAc
# Outline: as §1
# [3] = target: GlcNAc(b1-3)Gal(b1-4)GlcNAc(b1-2)Man(a1-3)[GlcNAc(b1-3)Gal(b1-4)GlcNAc(b1-2)Man(a1-6)]Man(b1-4)GlcNAc(b1-4)GlcNAc
# Outline: as §1
# [4] = target: GlcNAc(b1-3)Gal(b1-4)GlcNAc(b1-2)Man(a1-3)[GlcNAc(b1-3)Gal(b1-4)GlcNAc(b1-2)Man(a1-6)]Man(b1-4)GlcNAc(b1-4)[Fuc(a1-6)]GlcNAc
# Outline: as §1
# [5] = target: GlcNAc(b1-3)Gal(b1-4)GlcNAc(b1-2)[GlcNAc(b1-3)Gal(b1-4)GlcNAc(b1-6)]Man(a1-6)[GlcNAc(b1-3)Gal(b1-4)GlcNAc(b1-2)Man(a1-3)]Man(b1-4)GlcNAc(b1-4)GlcNAc
# Outline: as §1
# [6] = target: GlcNAc(b1-3)Gal(b1-4)GlcNAc(b1-3)Gal(b1-4)GlcNAc
# Outline: as §1
# [7] = target: GlcNAc(b1-3)Gal(b1-4)GlcNAc(b1-3)Gal(b1-4)GlcNAc(b1-2)Man(a1-3)[GlcNAc(b1-3)Gal(b1-4)GlcNAc(b1-3)Gal(b1-4)GlcNAc(b1-2)Man(a1-6)]Man(b1-4)GlcNAc(b1-4)GlcNAc
# Outline: as §1
# [8] = target: GlcNAc(b1-3)Gal(b1-4)GlcNAc(b1-3)Gal(b1-4)GlcNAc(b1-2)Man(a1-3)[GlcNAc(b1-3)Gal(b1-4)GlcNAc(b1-3)Gal(b1-4)GlcNAc(b1-2)Man(a1-6)]Man(b1-4)GlcNAc(b1-4)[Fuc(a1-6)]GlcNAc
# Outline: as §1
# [9] = target: GlcNAc(b1-3)Gal(b1-4)GlcNAc(b1-3)Gal(b1-4)GlcNAc(b1-2)[GlcNAc(b1-3)Gal(b1-4)GlcNAc(b1-3)Gal(b1-4)GlcNAc(b1-6)]Man(a1-6)[GlcNAc(b1-3)Gal(b1-4)GlcNAc(b1-3)Gal(b1-4)GlcNAc(b1-2)Man(a1-3)]Man(b1-4)GlcNAc(b1-4)[Fuc(a1-6)]GlcNAc
# Outline: as §1
# [10] = target: GlcNAc(b1-3)Gal(b1-4)GlcNAc(b1-3)Gal(b1-4)GlcNAc(b1-3)Gal(b1-4)GlcNAc(b1-2)Man(a1-3)[GlcNAc(b1-3)Gal(b1-4)GlcNAc(b1-3)Gal(b1-4)GlcNAc(b1-3)Gal(b1-4)GlcNAc(b1-2)Man(a1-6)]Man(b1-4)GlcNAc(b1-4)GlcNAc
# Outline: as §1
# [11] = target: GlcNAc(b1-3)Gal(b1-4)GlcNAc(b1-3)Gal(b1-4)GlcNAc(b1-3)Gal(b1-4)GlcNAc(b1-2)Man(a1-3)[GlcNAc(b1-3)Gal(b1-4)GlcNAc(b1-3)Gal(b1-4)GlcNAc(b1-3)Gal(b1-4)GlcNAc(b1-2)Man(a1-6)]Man(b1-4)GlcNAc(b1-4)[Fuc(a1-6)]GlcNAc
# Outline: as §1
# [12] = target: GlcNAc(b1-3)Gal(b1-4)GlcNAc(b1-3)Gal(b1-4)GlcNAc(b1-3)Gal(b1-4)GlcNAc(b1-2)[GlcNAc(b1-3)Gal(b1-4)GlcNAc(b1-3)Gal(b1-4)GlcNAc(b1-3)Gal(b1-4)GlcNAc(b1-6)]Man(a1-6)[GlcNAc(b1-3)Gal(b1-4)GlcNAc(b1-3)Gal(b1-4)GlcNAc(b1-3)Gal(b1-4)GlcNAc(b1-2)Man(a1-3)]Man(b1-4)GlcNAc(b1-4)[Fuc(a1-6)]GlcNAc
# Outline: as §1
# [13] = target: GlcNAc(b1-3)Gal(b1-4)GlcNAc(b1-3)Gal(b1-4)GlcNAc(b1-3)Gal(b1-4)GlcNAc(b1-3)Gal(b1-4)GlcNAc(b1-2)Man(a1-3)[GlcNAc(b1-3)Gal(b1-4)GlcNAc(b1-3)Gal(b1-4)GlcNAc(b1-3)Gal(b1-4)GlcNAc(b1-3)Gal(b1-4)GlcNAc(b1-2)Man(a1-6)]Man(b1-4)GlcNAc(b1-4)GlcNAc
# Outline: as §1
# [14] = target: GlcNAc(b1-3)Gal(b1-4)GlcNAc(b1-3)Gal(b1-4)GlcNAc(b1-3)Gal(b1-4)GlcNAc(b1-3)Gal(b1-4)GlcNAc(b1-2)Man(a1-3)[GlcNAc(b1-3)Gal(b1-4)GlcNAc(b1-3)Gal(b1-4)GlcNAc(b1-3)Gal(b1-4)GlcNAc(b1-3)Gal(b1-4)GlcNAc(b1-2)Man(a1-6)]Man(b1-4)GlcNAc(b1-4)[Fuc(a1-6)]GlcNAc
# Outline: as §1
# [15] = target: GlcNAc(b1-3)Gal(b1-4)GlcNAc(b1-3)Gal(b1-4)GlcNAc(b1-3)Gal(b1-4)GlcNAc(b1-3)Gal(b1-4)GlcNAc(b1-2)[GlcNAc(b1-3)Gal(b1-4)GlcNAc(b1-3)Gal(b1-4)GlcNAc(b1-3)Gal(b1-4)GlcNAc(b1-3)Gal(b1-4)GlcNAc(b1-6)]Man(a1-6)[GlcNAc(b1-3)Gal(b1-4)GlcNAc(b1-3)Gal(b1-4)GlcNAc(b1-3)Gal(b1-4)GlcNAc(b1-3)Gal(b1-4)GlcNAc(b1-2)Man(a1-3)]Man(b1-4)GlcNAc(b1-4)[Fuc(a1-6)]GlcNAc
# Outline: as §1
# [16] = target: GlcNAc(b1-3)Gal(b1-4)GlcNAc(b1-3)Gal(b1-4)GlcNAc(b1-3)GalNAc
# Outline: as §1
# [17] = target: GlcNAc(b1-3)Gal(b1-4)GlcNAc(b1-3)GalNAc
# Outline: as §1
# [18] = target: GlcNAc(b1-3)Gal(b1-4)GlcNAc(b1-3)[GlcNAc(b1-3)Gal(b1-4)GlcNAc(b1-3)]GalNAc
# Outline: as §1
# [19] = target: GlcNAc(b1-3)Gal(b1-4)GlcNAc(b1-6)[Gal(b1-3)]GalNAc
# Outline: as §1
# [20] = target: GlcNAc(b1-3)Gal(b1-4)GlcNAc(b1-6)[GlcNAc(b1-3)Gal(b1-3)]GalNAc
# Outline: as §1
# [21] = target: GlcNAc(b1-3)Gal(b1-4)GlcNAc(b1-6)[GlcNAc(b1-3)]Gal(b1-4)GlcNAc
# Outline: as §1
# GlcNAc(b1-3)GalNAc = target: GlcNAc(b1-3)GalNAc
# Outline: as §1
# GlcNAc(b1-3)Man = target: GlcNAc(b1-3)Man
# Outline: as §1
# [22] = target: GlcNAc(b1-3)[GlcNAc(b1-4)][GlcNAc(b1-6)]GlcNAc
# Outline: as §1
# [23] = target: GlcNAc(b1-3)[GlcNAc(b1-6)]Gal(b1-4)GlcNAc
# Outline: as §1
# [24] = target: GlcNAc(b1-3)[GlcNAc(b1-6)]GalNAc
# Outline: as §1
# [25] = target: GlcNAc(b1-4)Gal(b1-4)GlcNAc
# Outline: as §1
# GlcNAc(b1-4)GlcNAc = target: GlcNAc(b1-4)GlcNAc
# Outline: as §1
# [26] = target: GlcNAc(b1-4)GlcNAc(b1-4)GlcNAc
# Outline: as §1
# [27] = target: GlcNAc(b1-4)GlcNAc(b1-4)GlcNAc(b1-4)GlcNAc(b1-4)GlcNAc
# Outline: as §1
# [28] = target: GlcNAc(b1-4)GlcNAc(b1-4)GlcNAc(b1-4)GlcNAc(b1-4)GlcNAc(b1-4)GlcNAc
# Outline: as §1
# [29] = target: GlcNAc(b1-4)[GlcNAc(b1-6)]GalNAc
# Outline: as §1
# [30] = target: GlcNAc(b1-6)Gal(b1-4)GlcNAc
# Outline: as §1
# GlcNAc(b1-6)GalNAc = target: GlcNAc(b1-6)GalNAc
# Outline: as §1
# [31] = target: GlcNAc6S(b1-3)Gal(b1-4)GlcNAc
# Outline: as §1
# Kdn(a2-3)Gal(b1-3)GalNAc = target: Kdn(a2-3)Gal(b1-3)GalNAc
# Outline: as §1
binder,measurement,setting,value
"Epa6 (Candida glabrata), Q6DTM7_CANGB (protein) MGSSHHHHHHSSGLVPRGSHMKDDYSSSLSNNNLGWTDPTEFPLGCSPNVTTPKNGLSMELYSYDYLKSGSNPCWDAAYLDPNYPRTGYKSHRLLAKVENVAGNINFYYHAPMGCTSLFDTLPQAYNYRTPLTMTNFTMLLYGYFKPKVTGYHTFTISADDLLFVNFGAGNAFDCCKRESSADDFGNYQAYAVWGSQTAKDDLTVHLDAGLYYPIRIFFNNRDNDGALSLTLKTESDPNPVIDFSDYFYSFDDTKDGCPGLVSYDTS",glycan array binding signal (z-score),[1],-0.273
same,glycan array binding signal (z-score),GlcNAc(b1-3)Gal(b1-4)Glc,-0.339
same,glycan array binding signal (z-score),[2],-0.254
same,glycan array binding signal (z-score),[3],-0.319
same,glycan array binding signal (z-score),[4],-0.272
same,glycan array binding signal (z-score),[5],-0.167
same,glycan array binding signal (z-score),[6],-0.334
same,glycan array binding signal (z-score),[7],-0.222
same,glycan array binding signal (z-score),[8],-0.255
same,glycan array binding signal (z-score),[9],-0.136
same,glycan array binding signal (z-score),[10],-0.218
same,glycan array binding signal (z-score),[11],-0.212
same,glycan array binding signal (z-score),[12],-0.262
same,glycan array binding signal (z-score),[13],-0.253
same,glycan array binding signal (z-score),[14],-0.252
same,glycan array binding signal (z-score),[15],-0.28
same,glycan array binding signal (z-score),[16],-0.287
same,glycan array binding signal (z-score),[17],-0.342
same,glycan array binding signal (z-score),[18],-0.306
same,glycan array binding signal (z-score),[19],0.28
same,glycan array binding signal (z-score),[20],-0.266
same,glycan array binding signal (z-score),[21],-0.323
same,glycan array binding signal (z-score),GlcNAc(b1-3)GalNAc,-0.306
same,glycan array binding signal (z-score),GlcNAc(b1-3)Man,-0.263
same,glycan array binding signal (z-score),[22],-0.315
same,glycan array binding signal (z-score),[23],-0.331
same,glycan array binding signal (z-score),[24],-0.274
same,glycan array binding signal (z-score),[25],-0.357
same,glycan array binding signal (z-score),GlcNAc(b1-4)GlcNAc,-0.312
same,glycan array binding signal (z-score),[26],-0.334
same,glycan array binding signal (z-score),[27],-0.283
same,glycan array binding signal (z-score),[28],-0.277
same,glycan array binding signal (z-score),[29],-0.349
same,glycan array binding signal (z-score),[30],-0.097
same,glycan array binding signal (z-score),GlcNAc(b1-6)GalNAc,-0.302
same,glycan array binding signal (z-score),[31],-0.064
same,glycan array binding signal (z-score),Kdn(a2-3)Gal(b1-3)GalNAc,-0.212
